The source of these data is article PMC4336329 (PLoS ONE, 2015).

The structures appear in SMILES notation. Screen size: about 310,000 compounds; about 14,000 (4.5%) showed an effect of 50% or more. The effect is printed as a negative number. The list shows a part of the results.
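Note: peak tail current of the secondary pulse compared with the same well before compound.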

For the assay, the target named is human ether-à-go-go-related gene (hERG) potassium channel (human, UniProt Q12809). Briefly: primary screen, population patch clamp on CHO cells stably expressing hERG.
Sequence of human ether-à-go-go-related gene (hERG) potassium channel (Q12809 whole entry, looked up): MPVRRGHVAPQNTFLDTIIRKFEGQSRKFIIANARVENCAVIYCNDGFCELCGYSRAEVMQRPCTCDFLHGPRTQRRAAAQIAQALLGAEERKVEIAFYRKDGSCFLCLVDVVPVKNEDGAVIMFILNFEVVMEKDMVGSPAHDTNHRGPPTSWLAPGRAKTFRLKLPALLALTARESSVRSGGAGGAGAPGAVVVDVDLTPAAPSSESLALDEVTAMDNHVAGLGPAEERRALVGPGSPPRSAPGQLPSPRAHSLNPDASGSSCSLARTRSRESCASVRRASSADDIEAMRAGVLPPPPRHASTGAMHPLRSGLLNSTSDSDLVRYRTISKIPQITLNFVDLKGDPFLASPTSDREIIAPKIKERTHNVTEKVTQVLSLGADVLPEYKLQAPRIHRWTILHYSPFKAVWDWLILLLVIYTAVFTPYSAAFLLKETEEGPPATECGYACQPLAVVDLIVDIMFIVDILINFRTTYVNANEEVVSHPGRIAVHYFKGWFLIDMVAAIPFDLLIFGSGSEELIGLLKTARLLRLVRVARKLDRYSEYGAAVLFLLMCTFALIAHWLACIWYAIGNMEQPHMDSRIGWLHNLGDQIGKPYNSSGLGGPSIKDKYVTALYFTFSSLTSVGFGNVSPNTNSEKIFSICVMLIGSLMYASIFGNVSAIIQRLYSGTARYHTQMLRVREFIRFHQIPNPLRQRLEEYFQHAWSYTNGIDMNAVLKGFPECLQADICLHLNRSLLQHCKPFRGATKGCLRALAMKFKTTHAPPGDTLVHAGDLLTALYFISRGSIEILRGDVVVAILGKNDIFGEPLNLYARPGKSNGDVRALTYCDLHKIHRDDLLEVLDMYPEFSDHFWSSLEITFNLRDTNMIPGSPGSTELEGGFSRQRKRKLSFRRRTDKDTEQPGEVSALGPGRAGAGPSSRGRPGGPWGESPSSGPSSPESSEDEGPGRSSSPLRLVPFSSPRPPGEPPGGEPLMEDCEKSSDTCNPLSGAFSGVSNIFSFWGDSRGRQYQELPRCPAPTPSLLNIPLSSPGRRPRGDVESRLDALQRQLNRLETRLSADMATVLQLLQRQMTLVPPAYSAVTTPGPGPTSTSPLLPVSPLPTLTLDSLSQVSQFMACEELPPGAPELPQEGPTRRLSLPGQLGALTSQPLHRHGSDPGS
With `COc1ccc(OC)c(/C=N\NC(=O)CSc2nnc(CCCc3ccc(OC)c(C)c3)o2)c1`, the “hERG current change (%, negative = inhibition) at 10uM” value came out at 20.2%.

`Cc1ccc(NN2C(=O)C=C(c3ccc(Cl)cc3)C2=O)cc1`: the “hERG current change (%, negative = inhibition) at 10uM” value amounted to 13.9%.

Regarding `COc1ccc(S(=O)(=O)N2CCOCC2)cc1NC(=O)CSc1ccccc1`, the “hERG current change (%, negative = inhibition) at 10uM” value is recorded as -53.9%.

For `O=C(Nc1cccc(-c2cscn2)c1)C1CCN(Cc2ccc(CO)o2)CC1`, the “hERG current change (%, negative = inhibition) at 10uM” value is -3.02%.

In the case of `Cc1ccc(CNC(=O)CCC2CCCN(Cc3cccc4ncccc34)C2)o1` (centres unmarked), the “hERG current change (%, negative = inhibition) at 10uM” value was -22.4%.

As for `Cc1ccc2c(c1)c(C)c(C)n2CC(O)CN1CCCCC1C` (centres unmarked), the “hERG current change (%, negative = inhibition) at 10uM” value was -33.7%.

Regarding `COc1ccc(CC(=O)N2CC(C)CC(C)C2)cc1` (centres unmarked), the “hERG current change (%, negative = inhibition) at 10uM” value is reported as -6.06%.

Consider `COc1ccc(NC(=O)CSc2ccc3ccccc3c2)cc1S(=O)(=O)N1CCCCC1`, for which the “hERG current change (%, negative = inhibition) at 10uM” value was found to be 6.16%.

`Cc1cc(C)nc(-n2ncc3c2CCCC3=O)n1`: the “hERG current change (%, negative = inhibition) at 10uM” value amounted to 15.5%.

For `Cc1nc2c(=O)oc3ccccc3c2n1-c1ccccc1`, the “hERG current change (%, negative = inhibition) at 10uM” value was -25.2%.

Regarding `O=C(CCC1CCCN(c2ncccn2)C1)N1CCN(c2ccccn2)CC1` (centres unmarked), the “hERG current change (%, negative = inhibition) at 10uM” value is -23%.

For `CCn1cc(C(=O)NCCC2=CCCCC2)c(=O)c2cc(S(=O)(=O)N(C)C)ccc21`, the “hERG current change (%, negative = inhibition) at 10uM” value was -13.1%.

For the compound `CNc1cc(CS(=O)c2ccccc2)nc(-c2ccccc2)n1` (centres unmarked), the “hERG current change (%, negative = inhibition) at 10uM” value came out at 10.3%.

Turning to `CCC(=O)N1CCc2cc(S(=O)(=O)CCC(=O)Nc3ccc(OC)c(OC)c3)ccc21`, the “hERG current change (%, negative = inhibition) at 10uM” value was determined as 3.92%.

Turning to `Cc1ccccc1C(=O)Nc1ccc(O)cc1C(=O)O`, the “hERG current change (%, negative = inhibition) at 10uM” value was found to be 32.1%.

Take `Cc1ccc(S(=O)(=O)NC(=O)COc2ccccc2C)cc1`: the “hERG current change (%, negative = inhibition) at 10uM” value was determined as 17%.

`COCCNC(=O)c1cccc(OC2CCN(Cc3ccc(F)c(OC)c3)CC2)c1`: the “hERG current change (%, negative = inhibition) at 10uM” value is on record as -16.2%.

On to `COc1cccc(CNC(=O)CCC2CCCN(C(=O)C3CCOCC3)C2)c1` (centres unmarked), for which the “hERG current change (%, negative = inhibition) at 10uM” value amounted to 1.51%.

`O=C(NCc1ccccn1)C1CCCN(Cc2cnn(-c3ccccc3)c2-n2cccc2)C1` (centres unmarked): the “hERG current change (%, negative = inhibition) at 10uM” value is recorded as -24.5%.

`Cc1nn2cnnc2c(C)c1Cc1c(F)cccc1Cl`: the “hERG current change (%, negative = inhibition) at 10uM” value is on record as -13.4%.

With `CN(CC(=O)Nc1ccc(Cl)cc1)C(=O)CCNC(=O)c1ccc(Cl)cc1`, the “hERG current change (%, negative = inhibition) at 10uM” value is -67.7%.

Consider `Cc1onc(-c2c(Cl)cccc2Cl)c1C(=O)Nc1nc(C(C)(C)C)cs1`, for which the “hERG current change (%, negative = inhibition) at 10uM” value is reported as -26.4%.

On to `O=C(Cn1c(=O)n(Cc2ccc3c(c2)OCO3)c(=O)c2ccccc21)N1CCCc2ccccc21`, for which the “hERG current change (%, negative = inhibition) at 10uM” value turned out to be 4.46%.

For `CC(OC(=O)CCC(=O)c1ccc(F)cc1)C(=O)NC1CCCCC1C` (centres unmarked), the “hERG current change (%, negative = inhibition) at 10uM” value is on record as 8.71%.

`C/C(C=O)=C/c1ccccc1`: the “hERG current change (%, negative = inhibition) at 10uM” value worked out at 16.5%.

For the compound `Cc1ccc(-c2cc(C(F)F)n3ncc(C(=O)Nc4c(C)nn(Cc5ccccc5Cl)c4C)c3n2)cc1`, the “hERG current change (%, negative = inhibition) at 10uM” value is 9.8%.

Consider `Cc1c(C)c2ccc(OCC(=O)N[C@@H](Cc3c[nH]c4ccccc34)C(=O)O)cc2oc1=O`, for which the “hERG current change (%, negative = inhibition) at 10uM” value is reported as -1.71%.

Consider `COc1ccc(/C=N/N2CCOCC2)cc1Cn1cc([N+](=O)[O-])cn1`, for which the “hERG current change (%, negative = inhibition) at 10uM” value was determined as 1.52%.

Turning to `O=C(NCCSCc1ccccc1)c1ccc(Cl)c(S(=O)(=O)N2CCOCC2)c1`, the “hERG current change (%, negative = inhibition) at 10uM” value is -50%.

`Cc1c(-n2c(=S)[nH]c3ccccc3c2=O)c(=O)n(-c2ccccc2)n1C`: the “hERG current change (%, negative = inhibition) at 10uM” value came out at 16.7%.

On to `COc1ccc(Cn2c(O)c(C=Nc3ccc(C)cc3)c3ccccc3c2=O)cc1`, for which the “hERG current change (%, negative = inhibition) at 10uM” value came to 2.35%.

Turning to `COc1ccc(COc2cc(-c3cccc(OC)c3)nc3ccc(NC(C)=O)cc23)cc1`, the “hERG current change (%, negative = inhibition) at 10uM” value came out at 4.89%.

Consider `CCc1noc(C)c1C(=O)Nc1ccc(C#N)cc1`, for which the “hERG current change (%, negative = inhibition) at 10uM” value is 7.65%.

Regarding `O=C(CN1C(=O)NC(Cc2c[nH]c3ccccc23)C1=O)NCCc1ccccc1` (centres unmarked), the “hERG current change (%, negative = inhibition) at 10uM” value is listed as 4.6%.

For the compound `CC12CCC(c3nnc(SCc4ccc(Cl)cc4)nc31)C2(C)C` (centres unmarked), the “hERG current change (%, negative = inhibition) at 10uM” value was -6.48%.

As to `COc1ccc(C(=O)N/C(=C/c2cccs2)C(=O)NN)cc1OC`, the “hERG current change (%, negative = inhibition) at 10uM” value worked out at 13.7%.

In the case of `CC(=O)Nc1ccccc1OCc1nnc(-c2cccs2)o1`, the “hERG current change (%, negative = inhibition) at 10uM” value was determined as 4.35%.

Turning to `CN1CCN(CCC2Oc3cc([N+](=O)[O-])ccc3NC2=O)CC1` (centres unmarked), the “hERG current change (%, negative = inhibition) at 10uM” value is on record as -11.3%.

Regarding `COc1cc(NC(=O)c2ccc(N)nc2)cc(C(=O)Nc2cccc(C(F)(F)F)c2)c1`, the “hERG current change (%, negative = inhibition) at 10uM” value is given as -5.66%.

Consider `CSc1ccccc1C(=O)C1CCCN(Cc2ccncc2)C1` (centres unmarked), for which the “hERG current change (%, negative = inhibition) at 10uM” value was -41.7%.

`CNC(=S)N/N=C/c1c(C)nn(-c2ccc(F)cc2)c1Cl`: the “hERG current change (%, negative = inhibition) at 10uM” value is on record as 16.5%.

On to `CCCCN1C(=S)NC[C@@H]1Cc1ccccc1`, for which the “hERG current change (%, negative = inhibition) at 10uM” value is -11.8%.

Consider `O=C(Cc1ccc(Cl)c(Cl)c1)NNC(=S)NCC1CCCO1` (centres unmarked), for which the “hERG current change (%, negative = inhibition) at 10uM” value is 0.91%.

For `COc1ccc(CC(=O)O/N=C(\N)c2ccccn2)cc1OC`, the “hERG current change (%, negative = inhibition) at 10uM” value worked out at 10.2%.

Take `O=C1OC(NCc2cccnc2)(c2ccc(Cl)cc2)c2ccccc21` (centres unmarked): the “hERG current change (%, negative = inhibition) at 10uM” value is listed as 10.4%.

`COc1cc(/C=C(\C#N)C(=O)NC(C)C)cc(Cl)c1O`: the “hERG current change (%, negative = inhibition) at 10uM” value is 6.48%.

For `Cc1c(Cl)cccc1NC(=S)N(C)CCC#N`, the “hERG current change (%, negative = inhibition) at 10uM” value is on record as 28.5%.

Take `O=C(c1cc2ccccc2oc1=O)N(Cc1ccccc1F)C1CCS(=O)(=O)C1` (centres unmarked): the “hERG current change (%, negative = inhibition) at 10uM” value is recorded as -7.73%.

In the case of `O=[N+]([O-])c1ccc2nc(NS(=O)(=O)c3ccc(F)cc3)sc2c1`, the “hERG current change (%, negative = inhibition) at 10uM” value was found to be 31.5%.

Regarding `Cc1ccc(N(CC(=O)NCCSc2ccccn2)S(=O)(=O)c2ccc(F)cc2)cc1`, the “hERG current change (%, negative = inhibition) at 10uM” value is reported as -30.3%.

On to `CCOC(=O)c1c(N)sc(C(=O)N2CCCC2)c1C`, for which the “hERG current change (%, negative = inhibition) at 10uM” value stood at 12.3%.

As for `CCSc1nnc(NC(=O)[C@H](C)NC(=O)c2ccccc2Cl)s1`, the “hERG current change (%, negative = inhibition) at 10uM” value was 18.8%.

For `Cc1ccc(S(=O)(=O)N2CCCCC2)cc1C(=O)NCCCN1CCOCC1`, the “hERG current change (%, negative = inhibition) at 10uM” value turned out to be 16.7%.

On to `c1ccc2c(c1)Sc1ccccc1-n1cnnc1-2`, for which the “hERG current change (%, negative = inhibition) at 10uM” value is listed as -20.3%.

As for `O=S(=O)(NCCCc1ccccc1)c1ccccc1`, the “hERG current change (%, negative = inhibition) at 10uM” value stood at 10.3%.

Turning to `Cc1ccc(NC(=O)CSc2nc3ccccc3nc2N2CCOCC2)c(C)c1`, the “hERG current change (%, negative = inhibition) at 10uM” value was found to be 5.64%.
